Measured values as given in paper PMC5836133.
Some of the results follow. At the low end of the ranking the order means little.

System: T1, GST-NbGlk1(82-244)
T1 sequence: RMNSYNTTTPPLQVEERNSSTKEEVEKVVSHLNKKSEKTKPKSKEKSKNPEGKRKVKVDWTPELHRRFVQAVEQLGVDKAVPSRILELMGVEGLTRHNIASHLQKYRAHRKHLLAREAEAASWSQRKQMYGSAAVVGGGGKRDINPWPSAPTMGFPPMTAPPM
Assay: protein-binding microarray;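 also: rank-based score ranging −0.5 to +0.5 with E above 0.45 taken as significant binding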
Details: NbGlk1 is a Golden2-like transcription factor of Nicotiana benthamiana; high values mean tight binding; most listed sequences are background and not binding sites; double strand, one strand shown

Sequence | binding signal
ACTTTAGC | -0.0567 E-score
ACCCCCCT | -0.324 E-score
AAAACCAC | -0.0315 E-score
AAAGATAT | 0.342 E-score
AACCAACC | -0.103 E-score
ACCCTCCA | -0.316 E-score
ACGACTTG | -0.144 E-score
AAACACTT | 0.029 E-score
CACGATAG | 0.0221 E-score
AATCTGAC | 0.417 E-score
AGTCAGCG | -0.127 E-score
AATGAATT | 0.0979 E-score
ACGAACGG | -0.114 E-score
CAATACAA | 0.00418 E-score
ATTCCTGC | 0.176 E-score
ATGATATC | 0.422 E-score
AGCTAAGA | -0.0984 E-score
ATTGCTCC | 0.109 E-score
ACGCTTTG | -0.127 E-score
ACATCCAG | 0.139 E-score
AACAGGAA | 0.207 E-score
ACACACAA | -0.0075 E-score
ACTCAGTG | -0.0814 E-score
AGGGCGAG | -0.155 E-score
AGACTGAT | 0.0553 E-score
CAAGGACA | -0.14 E-score

Sequence | binding signal
AAACGAAT | 0.162 E-score
AGGGCGCC | -0.26 E-score
AACACCAG | -0.269 E-score
CAACACCG | -0.0516 E-score
AGTCTGCC | -0.367 E-score
AACAGAAG | 0.0291 E-score
CAGAGCAG | -0.226 E-score
AATGAGCT | -0.243 E-score
AAGCCCGA | -0.215 E-score
AACGTGGC | -0.202 E-score
AACCACGA | 0.0162 E-score
AGCGCACA | -0.118 E-score
AGGAGGTC | -0.289 E-score
ACCTGTTA | -0.0444 E-score
ATGAGTCC | -0.255 E-score
ATTTTCTG | 0.324 E-score
AGGCCATG | -0.189 E-score
AGATATTA | 0.379 E-score
AATGTTCC | -0.0591 E-score
ATCAGGGG | 0.111 E-score
ACCTTCGA | -0.204 E-score
AGACTTCG | -0.156 E-score
AACATGAT | 0.126 E-score
ATATTCTG | 0.342 E-score
AACATAAA | 0.0848 E-score
ATATACTG | 0.253 E-score

Sequence | binding signal
AAGGCAAG | -0.153 E-score
AAGTTAAG | -0.216 E-score
AATCATTA | 0.201 E-score
AACCTATT | 0.0255 E-score
ACGCTGTA | -0.149 E-score
AAGGCAGG | -0.181 E-score
ATTGTCCG | 0.119 E-score
ATCTTCAA | 0.303 E-score
ACTATTCT | 0.0057 E-score
ATGAAACA | 0.106 E-score
ATTCAGAC | 0.0229 E-score
ATTCGGGC | 0.188 E-score
AGCTTTGG | -0.221 E-score
ATATTCAC | 0.208 E-score
CAGAGCCC | -0.266 E-score
ATACGTGC | 0.2 E-score
ACCCGCGA | -0.0675 E-score
CACCCGCC | -0.173 E-score
AGTGAACA | -0.0625 E-score
AGCATAAG | -0.232 E-score
AAAATGCT | -0.0406 E-score
AGCACGGG | -0.141 E-score
AATCGTAA | 0.369 E-score
CACCGACA | -0.124 E-score
ACCTCTCA | -0.229 E-score
ATTGGTTA | 0.0759 E-score

Sequence | binding signal
ATCCGATC | 0.286 E-score
AGATACAT | 0.119 E-score
CACCAACC | -0.194 E-score
CACCTATA | 0.0797 E-score
AACACAGC | -0.0633 E-score
AGAGGTCA | -0.309 E-score
ACATAGCG | -0.00778 E-score
ATCGAACG | 0.0812 E-score
AAGAGTCC | -0.25 E-score
AGGCTTCG | -0.245 E-score
ATTACAAG | 0.219 E-score
AACTCGTG | -0.152 E-score
AGTATGAT | 0.162 E-score
AGAAGACT | -0.172 E-score
AGTGTCAT | -0.157 E-score
ACCTAAGG | -0.11 E-score
ACCGAAGC | -0.144 E-score
AAGACCTG | -0.122 E-score
ATTGGGTA | 0.0391 E-score
AAGCAGCT | -0.25 E-score
ATGAACAT | -0.0879 E-score
AGAAGACG | -0.0835 E-score
ACAAATTC | 0.18 E-score
ACTGTTTC | -0.121 E-score
ATAGTAGC | -0.0696 E-score
ATTCCGAG | 0.275 E-score

Sequence | binding signal
AATGGAGT | -0.016 E-score
ACTAGTGC | -0.129 E-score
CACTGGTC | -0.278 E-score
ATCTGGTG | 0.333 E-score
ACCTATGA | -0.0891 E-score
AGCATGTA | 0.0981 E-score
AGAACTTG | -0.0907 E-score
AAAGACAA | 0.0545 E-score
AACTTGTG | -0.191 E-score
AAATGTCG | -0.00369 E-score
AGCTGTAA | -0.0439 E-score
ACTCCCCC | -0.216 E-score
AATAACCA | 0.0526 E-score
AACGCATA | -0.0442 E-score
AGATGTAG | 0.0326 E-score
ACCCCGCG | -0.188 E-score
AAGCGCTC | -0.0795 E-score
AATGAGGG | -0.0102 E-score
ACCATTTC | -0.0965 E-score
ATTGCTAA | 0.202 E-score
ACACCCAG | -0.139 E-score
AACGTTGG | -0.0439 E-score
ATCAAGTG | 0.0355 E-score
ATACTATG | 0.00304 E-score
CAACACCA | -0.122 E-score
ACTAGGAG | -0.143 E-score

Sequence | binding signal
CAAAGAAG | -0.0409 E-score
ATGGAGAC | -0.168 E-score
AACCATGA | 0.0502 E-score
CAACCTCC | -0.312 E-score
ACATACGT | -0.0574 E-score
CACTACGA | -0.0405 E-score
ACACTAGG | -0.0663 E-score
ACGGGTAT | 0.00646 E-score
ACCTGGCT | -0.283 E-score
CACCGGGC | -0.275 E-score
AGAAAGAG | -0.129 E-score
ATCCTATA | 0.326 E-score
AGAGCTCC | -0.331 E-score
CAATCAGC | 0.22 E-score
AACCCCAC | -0.155 E-score
ACCATGAA | 0.0718 E-score
AAGCATTG | -0.205 E-score
AAGGTCCA | -0.296 E-score
ACTTGTAC | -0.0738 E-score
CAACAATA | 0.11 E-score
ATGGAGTG | -0.0854 E-score
AGTACGTC | -0.165 E-score
ATGACCGA | -0.13 E-score
AAGTATGG | -0.0398 E-score
AACGGCGG | -0.173 E-score
